# According to the supplement of paper PMC8728848:
# The list shows a part of the results.
# B1: Cohesin-mDCIR (Macaca mulatta) (protein)
# chain: GLDDLDAVRIKVDTVNAKPGDTVRIPVRFSGIPSKGIANCDFVYSYDPNVLEIIEIEPGDIIVDPNPDKSFDTAVYPDRKIIVFLFAEDSGTGAYAITKDGVFATIVAKVKEGAPNGLSVIKFVEVGGFANNDLVEQKTQFFDGGVNVGDTTEPATPTTPVTTPTTTDDLDAASFQKYSQLLEKMTTKDLVHTTLECVKKNMTTEETAWSCCPKNWKPFSSNCYFISTESASWQKSEKDCARMEAHLLVINTREEQDFIFQNLQEESAYFVGLSDPEGQRHWQWVDRTPYNESSTFWHPHEPSDPDERCVVLNFRKTPKRWGWNDVHCIVHQRSVCEMMKIHLHHHHHH
# Assays:
# Assay in all cases: glycan array binding signal (z-score within array); higher = stronger binding
# Conditions in all cases: glycan notation: IUPAC condensed, linker removed
# [1] = molecular target: Gal(b1-3)GlcNAc(b1-2)Man(a1-3)[Gal(b1-3)GlcNAc(b1-2)Man(a1-6)]Man(b1-4)GlcNAc(b1-4)[Fuc(a1-6)]GlcNAc
# How it was run: (§1)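 Arrays were curated from the Consortium for Functional Glycomics database, 3228 in total, and kept only where the protein sequence was available. Binding is expressed as a within-array Z-score. This score was averaged across arrays of the same protein sequence at different concentrations or buffers and across linkers, and negative values can be read as non-binding.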
# [2] = molecular target: Gal(b1-3)GlcNAc(b1-2)Man(a1-3)[GlcNAc(b1-4)][Gal(b1-3)GlcNAc(b1-2)Man(a1-6)]Man(b1-4)GlcNAc(b1-4)GlcNAc
# How it was run: as §1
# [3] = molecular target: Gal(b1-3)GlcNAc(b1-2)[Gal(b1-3)GlcNAc(b1-6)]Man(a1-6)[Gal(b1-3)GlcNAc(b1-2)Man(a1-3)]Man(b1-4)GlcNAc(b1-4)GlcNAc
# How it was run: as §1
# [4] = molecular target: Gal(b1-3)GlcNAc(b1-3)Gal(b1-3)GlcNAc
# How it was run: as §1
# [5] = molecular target: Gal(b1-3)GlcNAc(b1-3)Gal(b1-4)Glc
# How it was run: as §1
# [6] = molecular target: Gal(b1-3)GlcNAc(b1-3)Gal(b1-4)GlcNAc
# How it was run: as §1
# [7] = molecular target: Gal(b1-3)GlcNAc(b1-3)Gal(b1-4)GlcNAc(b1-2)Man(a1-3)[Gal(b1-3)GlcNAc(b1-3)Gal(b1-4)GlcNAc(b1-2)Man(a1-6)]Man(b1-4)GlcNAc(b1-4)GlcNAc
# How it was run: as §1
# [8] = molecular target: Gal(b1-3)GlcNAc(b1-3)Gal(b1-4)GlcNAc(b1-2)[Gal(b1-3)GlcNAc(b1-3)Gal(b1-4)GlcNAc(b1-6)]Man(a1-6)[Gal(b1-3)GlcNAc(b1-3)Gal(b1-4)GlcNAc(b1-2)Man(a1-3)]Man(b1-4)GlcNAc(b1-4)[Fuc(a1-6)]GlcNAc
# How it was run: as §1
# [9] = molecular target: Gal(b1-3)GlcNAc(b1-3)Gal(b1-4)GlcNAc(b1-3)Gal(b1-4)GlcNAc(b1-2)[Gal(b1-3)GlcNAc(b1-3)Gal(b1-4)GlcNAc(b1-3)Gal(b1-4)GlcNAc(b1-6)]Man(a1-6)[Gal(b1-3)GlcNAc(b1-3)Gal(b1-4)GlcNAc(b1-3)Gal(b1-4)GlcNAc(b1-2)Man(a1-3)]Man(b1-4)GlcNAc(b1-4)[Fuc(a1-6)]GlcNAc
# How it was run: as §1
# [10] = molecular target: Gal(b1-3)GlcNAc(b1-3)Gal(b1-4)GlcNAc(b1-6)[Gal(b1-3)GlcNAc(b1-3)]Gal(b1-4)Glc
# How it was run: as §1
# [11] = molecular target: Gal(b1-3)GlcNAc(b1-3)Gal(b1-4)[Fuc(a1-3)]GlcNAc
# How it was run: as §1
# [12] = molecular target: Gal(b1-3)GlcNAc(b1-3)Gal(b1-4)[Fuc(a1-3)]GlcNAc(b1-6)[Gal(b1-3)GlcNAc(b1-3)]Gal(b1-4)Glc
# How it was run: as §1
# [13] = molecular target: Gal(b1-3)GlcNAc(b1-3)GalNAc
# How it was run: as §1
# [14] = molecular target: Gal(b1-3)GlcNAc(b1-6)Gal(b1-4)GlcNAc
# How it was run: as §1
# [15] = molecular target: Gal(b1-3)GlcNAc(b1-6)GalNAc
# How it was run: as §1
# [16] = molecular target: Gal(b1-3)GlcNAc(b1-6)[Gal(b1-3)]GalNAc
# How it was run: as §1
# Gal(b1-3)GlcNAc6S = molecular target: Gal(b1-3)GlcNAc6S
# How it was run: as §1
# [17] = molecular target: Gal(b1-3)[Fuc(a1-4)]GlcNAc
# How it was run: as §1
# [18] = molecular target: Gal(b1-3)[Fuc(a1-4)]GlcNAc(b1-2)Man
# How it was run: as §1
# [19] = molecular target: Gal(b1-3)[Fuc(a1-4)]GlcNAc(b1-2)Man(a1-3)[Gal(b1-3)[Fuc(a1-4)]GlcNAc(b1-2)Man(a1-6)]Man(b1-4)GlcNAc(b1-4)[Fuc(a1-6)]GlcNAc
# How it was run: as §1
# [20] = molecular target: Gal(b1-3)[Fuc(a1-4)]GlcNAc(b1-3)Gal(b1-3)[Fuc(a1-4)]GlcNAc
# How it was run: as §1
# [21] = molecular target: Gal(b1-3)[Fuc(a1-4)]GlcNAc(b1-3)Gal(b1-4)[Fuc(a1-3)]GlcNAc
# How it was run: as §1
# [22] = molecular target: Gal(b1-3)[Fuc(a1-4)]GlcNAc(b1-6)GalNAc
# How it was run: as §1
# [23] = molecular target: Gal(b1-3)[GlcNAc(b1-6)]GalNAc
# How it was run: as §1
# [24] = molecular target: Gal(b1-3)[Neu5Ac(a2-6)]GalNAc
# How it was run: as §1
# [25] = molecular target: Gal(b1-3)[Neu5Ac(a2-6)]GlcNAc(b1-4)Gal(b1-4)Glc
# How it was run: as §1
# [26] = molecular target: Gal(b1-3)[Neu5Ac(b2-6)]GalNAc
# How it was run: as §1
# Gal(b1-4)Gal = molecular target: Gal(b1-4)Gal
# How it was run: as §1
# [27] = molecular target: Gal(b1-4)GalNAc(a1-3)[Fuc(a1-2)]Gal(b1-4)GlcNAc
# How it was run: as §1
# [28] = molecular target: Gal(b1-4)GalNAc(b1-3)[Fuc(a1-2)]Gal(b1-4)GlcNAc
# How it was run: as §1
# Gal(b1-4)Glc = molecular target: Gal(b1-4)Glc
# How it was run: as §1
# Gal(b1-4)Glc6S = molecular target: Gal(b1-4)Glc6S
# How it was run: as §1
# Gal(b1-4)GlcNAc = molecular target: Gal(b1-4)GlcNAc
# How it was run: as §1
# [29] = molecular target: Gal(b1-4)GlcNAc(a1-6)Gal(b1-4)GlcNAc
# How it was run: as §1
# Gal(b1-4)GlcNAc(b1-2)Man = molecular target: Gal(b1-4)GlcNAc(b1-2)Man
# How it was run: as §1
# [30] = molecular target: Gal(b1-4)GlcNAc(b1-2)Man(a1-3)Man(b1-4)GlcNAc(b1-4)GlcNAc
# How it was run: as §1
# [31] = molecular target: Gal(b1-4)GlcNAc(b1-2)Man(a1-3)[Gal(b1-4)GlcNAc(b1-2)Man(a1-6)]Man(b1-4)GlcNAc(b1-4)GlcNAc
# How it was run: as §1
binder,measurement,setting,value
B1,glycan array binding signal (z-score),[1],-0.271
same,glycan array binding signal (z-score),[2],-0.285
same,glycan array binding signal (z-score),[3],-0.369
same,glycan array binding signal (z-score),[4],-0.43
same,glycan array binding signal (z-score),[5],-0.363
same,glycan array binding signal (z-score),[6],-0.249
same,glycan array binding signal (z-score),[7],-0.022
same,glycan array binding signal (z-score),[8],-0.123
same,glycan array binding signal (z-score),[9],0.116
same,glycan array binding signal (z-score),[10],-0.392
same,glycan array binding signal (z-score),[11],0.304
same,glycan array binding signal (z-score),[12],-0.45
same,glycan array binding signal (z-score),[13],-0.443
same,glycan array binding signal (z-score),[14],-0.18
same,glycan array binding signal (z-score),[15],3.16
same,glycan array binding signal (z-score),[16],-0.421
same,glycan array binding signal (z-score),Gal(b1-3)GlcNAc6S,-0.455
same,glycan array binding signal (z-score),[17],-0.093
same,glycan array binding signal (z-score),[18],-0.313
same,glycan array binding signal (z-score),[19],-0.285
same,glycan array binding signal (z-score),[20],4.89
same,glycan array binding signal (z-score),[21],-0.285
same,glycan array binding signal (z-score),[22],-0.084
same,glycan array binding signal (z-score),[23],-0.347
same,glycan array binding signal (z-score),[24],-0.312
same,glycan array binding signal (z-score),[25],-0.388
same,glycan array binding signal (z-score),[26],-0.333
same,glycan array binding signal (z-score),Gal(b1-4)Gal,-0.352
same,glycan array binding signal (z-score),[27],-0.258
same,glycan array binding signal (z-score),[28],-0.103
same,glycan array binding signal (z-score),Gal(b1-4)Glc,-0.246
same,glycan array binding signal (z-score),Gal(b1-4)Glc6S,-0.318
same,glycan array binding signal (z-score),Gal(b1-4)GlcNAc,-0.235
same,glycan array binding signal (z-score),[29],-0.278
same,glycan array binding signal (z-score),Gal(b1-4)GlcNAc(b1-2)Man,-0.029
same,glycan array binding signal (z-score),[30],-0.334
same,glycan array binding signal (z-score),[31],-0.28
